Source: PubChem BioAssay AID938 (National Center for Advancing Translational Sciences (NCATS), 2007)
The campaign covered roughly 73,000 compounds. About 1,800 (2.5%) were called active. The shares of active, inactive and inconclusive entries below differ from those in the screen. Calls come from the whole dose curve; as a rule, active = well fitted activation curve with a large enough effect; inconclusive = small, poorly fitted or top-dose-only effect; inactive = no such curve, though single readings can be large or run the other way. No potency is given beside an inconclusive call; the fits are too rough.

experiment: qHTS Assay for Agonists of the Thyroid Stimulating Hormone Receptor: Activators of Intracellular cAMP Concentrations in Parental HEK 293; conditions: parental HEK293 CNG cAMP sensor, membrane potential fluorescence; activation: at 57.1 µM (top of the series) unless noted; note: nearly all actives have a fitted effect of over 55% in size; for activation: % of control where 0% means no effect
How it was run: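 Parental HEK 293 cells stably expressing a cAMP-gated CNG channel were loaded with membrane potential dye containing 100 uM RO 20-1724 for 60 min. Compound added for 30 min; depolarization read as fluorescence intensity at 590 nm.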
Potency is the fitted concentration of half-maximal effect; tags give direction and shape of the fitted curve.

SMILES	activation	Potency
CC(C)CN1CCC2(CC1)CCN(S(=O)(=O)c1ccccc1)CC2	inactive: 12.1%	–
Cc1ccnc(NS(=O)(=O)c2cccc3nsnc23)c1	–	inconclusive [activator, partial curve]
Cc1ccc(F)cc1NC(=O)Cc1nn(C)c(=O)c2ccccc12	–	inconclusive [activator, partial curve]
COc1ccc(-n2c(=O)cnc3cnc(OC)nc32)cc1	–	inconclusive [activator, single point]
CN1CCc2c(sc3c2C(=O)NC(c2ccco2)N3)C1 (stereo unspecified)	inactive: 0.938%	–
CCOC(=O)C1=C(N)OC2=C(C(=O)CCC2)C1c1cccs1 (stereo unspecified)	–	inconclusive [activator, partial curve]
COc1cc2nc(N3CC=[N+](C(=O)c4ccco4)CC3)nc(N)c2cc1OC	inactive: -2.35%	–
O=C1c2ccccc2NC(c2ccncc2)N1c1ccccn1 (stereo unspecified)	inactive: 6.65%	–
COC(=O)[C@@]1(Cc2ccc(OC)cc2)[C@H]2c3cc(C(=O)N4CCCC4)n(Cc4ccccn4)c3C[C@H]2CN1C(=O)c1ccccc1	–	inconclusive [activator, partial curve]
COc1ccccc1CN1CCC2(CC1)CCN(C(=O)c1cc(C(F)(F)F)cc(C(F)(F)F)c1)CC2	inactive: -15.3%	–
Cn1c(=O)c2c(nc(SCC(=O)NCc3ccc4c(c3)OCO4)n2Cc2ccccc2)n(C)c1=O	–	inconclusive [activator, partial curve, poor fit]
CCOc1ncccc1C(=O)NCC1COc2ccccc2O1 (stereo unspecified)	–	inconclusive [activator, partial curve]
C=C(C)OC(C)=O	inactive: -4.59%	–
Cc1ccc2c(c1)c1c(n2CC(O)Cn2c(C)nc3ccccc32)C(=O)CCC1 (stereo unspecified)	inactive: 7.88%	–
CC1(C)C(=O)C(c2ccccc2)=C2CN3C(=O)N(CCc4ccccc4)C(=O)C3(Cc3ccc(C(F)(F)F)cc3)C=C21 (stereo unspecified)	inactive: 10.6%	–
Clc1ccccc1-c1nn2c(COc3ccccc3)nnc2s1	–	inconclusive [activator, partial curve]
O=C(O)CSc1nc(-c2ccccc2)nc2c1oc1ccccc12	inactive: 4.99%	–
COc1ccc(-c2cc(C(F)(F)F)n3nc(C(=O)NCc4ccco4)cc3n2)cc1	–	inconclusive [activator, single point]
COc1ccc(C2C(C(=O)N3CCN(c4ccccc4)CC3)c3ccccc3C(=O)N2C)cc1OC (stereo unspecified)	–	inconclusive [activator, single point]
COC(=O)c1nn(-c2c(C)n(C)n(-c3ccccc3)c2=O)cc1O	inactive: -5.7%	–
Cn1c(C(=O)O)c(CC(=O)Nc2ccccc2F)c2ccccc21	–	inconclusive [activator, single point]
C/C(N)=C(/C#N)C(=O)CSc1nnnn1-c1ccc(C)cc1C	–	inconclusive [activator, single point]
Cc1ccccc1-c1nc(N2CCNCC2)c2ccccc2n1	–	inconclusive [activator, single point]
CCOc1ccc(-n2c(Cc3cc(=O)[nH]c(=O)[nH]3)nnc2SC(C)C(=O)OC)cc1 (stereo unspecified)	–	inconclusive [activator, single point]

SMILES	activation	Potency
O=C(c1ccccc1F)N1CCN(Cc2cccc(Cl)c2)CC1	–	inconclusive [activator, single point]
COc1cc(C(=O)OCC(=O)Nc2c(F)c(F)c(F)c(F)c2F)cc(OC)c1OC	–	inconclusive [activator, partial curve]
CCOC(=O)c1cccc(NC(=O)CCc2nc(-c3ccccc3F)no2)c1	–	inconclusive [activator, single point]
Cc1ccccc1S(=O)(=O)Cc1ccc(C(=O)NCc2cccnc2)o1	–	inconclusive [activator, single point]
CN(C)S(=O)(=O)c1ccc(NS(=O)(=O)/C=C/c2ccccc2)cc1	inactive: 12.2%	–
COCCN1Cc2cccc(C(=O)Nc3ccc4c(c3)OCCO4)c2C1=O	inactive: 2.33%	–
Cc1nc(CC(=O)Nc2nc(-c3ccccc3)cs2)cs1	inactive: 28.3%	–
CCOC(=O)C1C(=O)NC(N2CCc3ccccc32)=NC1c1ccccc1 (stereo unspecified)	–	inconclusive [activator, single point]
O=C1[C@@H]2[C@H]3[C@H](O)[C@H](O)C/C(=N/OCc4ccccc4)[C@H]3CC[C@H]2C(=O)N1c1ccc(F)cc1F	inactive: -7.94% [at 11.4 µM]	–
COc1c(F)c(F)c(C(=O)Nc2ccccc2N2CCN(C(=O)C(C)C)CC2)c(F)c1F	–	inconclusive [activator, single point]
CCc1c(C)nc2ncnn2c1N1CCCC(C(=O)NCc2ccc3c(c2)OCO3)C1 (stereo unspecified)	–	inconclusive [activator, single point]
COC(=O)c1ccc(OC)c(CSc2nnc(COc3ccc(Cl)cc3)o2)c1	–	inconclusive [activator, full curve]
CCC(=O)Nc1cccc(NC(=O)c2ccc3c(c2)OCCO3)c1	–	inconclusive [activator, single point]
C=CCOCC1CN2C(CCC(C)C2c2ccc(Br)cc2)C(=O)O1 (stereo unspecified)	inactive: 15.9% [at 11.4 µM]	–
Oc1ccccc1-c1cc(C(F)(F)C(F)F)[nH]n1	inactive: -6.17% [at 11.4 µM]	–
CC(C)C(=O)N(Cc1cc2ccccc2[nH]c1=O)C(C)C	–	inconclusive [activator, single point]
NC(=O)c1ccc(-c2nc(-c3ccc4c(c3)OCO4)c(-c3ccccn3)[nH]2)cc1	inactive: -13.2%	–
CCOC(=O)c1oc2ccccc2c1NC(=O)c1cc(OC)cc(OC)c1	–	inconclusive [activator, single point]
c1cncc(C2Nc3ccccc3-c3nc4ccccc4n32)c1 (stereo unspecified)	inactive: 3.76%	–
CN(C)C(=O)c1ccc(-c2cncnc2N2CCNCC2)cc1	–	inconclusive [activator, partial curve]
N#Cc1c(C(F)(F)F)cc(-c2ccco2)nc1SCc1ccccn1	–	active: 31.6 µM
COc1ccccc1C(=O)NCc1ccc2c(c1)OCO2	inactive: 2.42%	–
COC(=O)c1ccc(COC(=O)c2c(C)nn(Cc3ccccc3Cl)c2Cl)o1	–	active: 15.8 µM
O=C(C1CC1)N1CCc2cc(S(=O)(=O)NCCC3=CCCCC3)ccc21	–	inconclusive [activator, partial curve]

SMILES	activation	Potency
Cc1ccc(S(=O)(=O)OCC(=O)O)cc1	inactive: 13.3% [at 11.4 µM]	–
O=C(c1cc(C(F)(F)F)cc(C(F)(F)F)c1)N1CCC2(CC1)CN(c1ccncc1)C2	–	inconclusive [activator, partial curve]
CCn1c(C(=O)OC)cc2c1ccn2-c1ccc(F)cc1	–	inconclusive [activator, full curve]
CCCCn1c(=O)cc(N2CCOCC2)[nH]c1=O	–	inconclusive [activator, single point]
CCN(CC)S(=O)(=O)c1cc(C)c(C)cc1Br	–	inconclusive [activator, single point]
COCCn1c(SCc2nnc(-c3ccccc3)o2)nc2sc3c(c2c1=O)CCC3	–	inconclusive [activator, full curve, poor fit]
O=C1C(=O)N(Cc2ccc(Cl)c(Cl)c2)c2ccccc21	–	inconclusive [activator, partial curve]
Cc1cc(NCc2ccco2)nc2cc(O)ccc12	inactive: 10.8%	–
COc1ccc(OCC(=O)Nc2cccc(OC)c2)cc1	inactive: 5.37%	–
CN1C(c2ccc(F)cc2)=CS/C1=C(\C#N)c1nnc2n1-c1ccccc1SC2	–	inconclusive [activator, single point]
Cc1ccc(-n2nnc3c(=O)n(CC(=O)N4CCOCC4)cnc32)cc1	–	inconclusive [activator, single point]
O=C(O)c1cc(S(=O)(=O)Nc2ccc(O)cc2)ccc1Cl	inactive: 11.1%	–
CN1CCN(C(=O)c2cc(-c3ccc(O)cc3)on2)CC1	inactive: -1.65%	–
CCOC(=O)N1CCN(C(=O)c2ccc3nc4ccc(Cl)cc4c(=O)n3c2)CC1	inactive: 5.66%	–
Cc1cc2c(cc1C)-c1nnnn1C(C)(C)C2	–	inconclusive [activator, single point]
O=S1(=O)c2cccc3cccc(c23)N1Cc1nnc(-c2ccccc2Br)o1	–	inconclusive [activator, partial curve]
Cn1c(=S)n(/N=C/c2ccc3c(c2)OCO3)c2ccccc21	–	inconclusive [activator, partial curve]
CCN(CC)S(=O)(=O)c1cc(C(=O)Nc2ccccn2)ccc1C	–	inconclusive [activator, partial curve]
COc1ccc(OC)c(CCNC(=O)CS(=O)(=O)Cc2nc(-c3ccc(C)cc3)oc2C)c1	–	inconclusive [activator, single point]
CCOCCCNC(=O)N[C@@H](Cc1ccccc1)C(=O)OC	–	inconclusive [activator, single point]
CO[C@]1(NC(=O)[C@H](C(=O)O)c2ccc(O)cc2)C(=O)N2C(C(=O)O)=C(CSc3nnnn3C)CO[C@H]21	inactive: 1.88% [at 25.6 µM]	–
O=C(Nc1ccc2c(c1)OCO2)c1ccc(Br)c(S(=O)(=O)N2CCCC2)c1	–	inconclusive [activator, single point]
CN(C)/N=N\c1nc[nH]c1C(N)=O	–	inconclusive [activator, single point]
